These results are taken from patent US20060223729A1, “Photodynamic inactivation of bacterial spores” (priority 2003, published 2006).

For this test, the system named is B. cereus spores. In words: Photodynamic inactivation (PDI) of B. cereus spores, colony-forming units. Type of test: cell-based, B. cereus (ATCC14579). How it is done: The bacteria studied in the following examples were B. atrophaeus (ATCC 9372), B. cereus (ATCC14579), B. thuringiensis (ATCC 33740) and B. subtilis (ATCC 6051). Growing bacterial cells were cultivated in brain-heart infusion (BHI) broth at 37° C. Aliquots of the suspension (10^8/mL) were stored at −80° C. and then used for the experiments.
For initial experiments spores of B. atrophaeus and B. cereus were purchased from SGM Biotech, Inc (Bozeman, Mont., USA). For subsequent experiments spores of all species were prepared in the laboratory using sporulation broth for B. atrophaeus and B. subtilis, or sporulation agar (Caipo et al., 2002; Nicholson & Setlow, 1990) for B. cereus and B. thuringiensis. The sporulation medium consisted of 16.0 g nutrient broth (Difco), 2.0 g KCl, 0.5 g MgSO4; 17 g of agar. The pH of the medium was adjusted to 7, then autoclaved and cooled. After cooling 1 ml of 1M […], 1 ml of 0.1 M MnCl2.4H2O, 1 ml of 1 mM FeSO4 and 2 ml 50% glucose were added. For spore purification the mixture of spores and cells was centrifuged at 1300 g for 20 min, washed with SX volume 1 M KCl/0.5 M NaCl, rinsed with sterile deionized water, then washed with 1 M NaCl, and rinsed with sterile deionized water again. Lysozyme (50 μg/mL) was added in the presence of buffer (5× volume Tris Cl, 0.05 M, pH 7 2), and incubated with constant stirring at 4° C. overnight. […]

On to `Cc1cc2nc3ccc(N(C)C)cc3[s+]c2cc1N.[Cl-]` [TBO, Toluidine Blue O], for which the “effect of tenfold dilution of spore suspension on killing for a given fluence” value was “increase in amount of spore killing”.
